Experimental data taken from the supplement of paper PMC12217912.
The list shows a part of the results. The full chains were built here from the parent and the listed change. Values near 0.05 are background.

B1: TEV protease; numbered along this chain (parent)
chain: MGESLFKGPRDYNPISSSICHLTNESDGHTTSLYGIGFGPFIITNKHLFRRNNGTLVVQSLHGVFKVKDTTTLQQHLVDGRDMIIIRMPKDFPPFPQKLKFREPQREERICLVTTNFQTKSMSSMVSDTSCTFPSGDGIFWKHWIQTKDGQCGSPLVSTRDGFIVGIHSASNFTNTNNYFTSVPKNFMELLTNQEAQQWVSGWRLNADSVLWGGHKVFMVKPEEPFQPVKEATQL

Variants of: B1
Assay: raw area under fraction-flipped curve 0-4 h after induction (AUC4h, not background-subtracted), DNA-recorder readout of cleavage of the substrate (dimensionless); higher = more cleavage of the substrate by the protease variant
Conditions: temperature: 34 °C; time window: 0-4 h after rhamnose induction
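Note: Bxb1 expression induced with 0.2% (w/v) L-rhamnose at OD600 near 0.5, cultures sampled hourly, flipped fraction per protease–substrate barcode pair counted by paired-end Illumina sequencing.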

| Variant | area with substrate ENLYDQS | area with substrate ENLYEQS | area with substrate ENLYGQS | area with substrate ENLYHQS | area with substrate ENLYMQS | area with substrate ENLYNQS | area with substrate ENLYPQS | area with substrate ENLYQQS | area with substrate ENLYRQS | area with substrate ENLYSQS | area with substrate ENLYTQS | area with substrate ENLYVQS | area with substrate ENLYWQS | area with substrate ENLYYQS | area with substrate ENLYKQS | area with substrate ENLYIQS | area with substrate ENLYLQS |
| --- | --- | --- | --- | --- | --- | --- | --- | --- | --- | --- | --- | --- | --- | --- | --- | --- | --- |
| V126F | 0.0726 | 0.059 | 0.0543 | 0.0708 | 0.099 | 0.0718 | 0.0829 | 0.0599 | 0.0557 | 0.0761 | 0.104 | 0.125 | 0.129 | 0.0705 |  |  |  |
| P225F | 0.0514 | 0.071 | 0.0532 | 0.0737 | 0.0728 | 0.0598 | 0.0696 |  |  | 0.0732 |  | 0.0878 |  | 0.0562 | 0.0621 |  |  |
| P225I | 0.0381 | 0.0592 |  |  |  | 0.0332 |  |  | 0.0509 |  |  |  | 0.0859 | 0.0494 |  |  |  |
| C152S |  | 0.067 | 0.0639 | 0.0534 | 0.0571 | 0.0608 | 0.053 | 0.0682 | 0.0586 | 0.078 |  | 0.0576 |  |  | 0.0346 | 0.0658 | 0.0408 |
| G150K | 0.0641 | 0.0569 | 0.0553 |  | 0.0593 |  | 0.056 | 0.0667 | 0.0567 | 0.058 | 0.0522 | 0.0531 | 0.0593 | 0.064 | 0.0671 | 0.0778 | 0.0457 |
| P155W | 0.0539 | 0.0515 | 0.0524 | 0.0454 | 0.0481 | 0.0582 | 0.0569 | 0.0578 | 0.0593 | 0.054 | 0.0533 | 0.0511 | 0.0561 |  | 0.0333 | 0.041 | 0.0516 |
| V157A | 0.0504 |  | 0.0468 |  |  |  |  |  | 0.0669 | 0.0725 |  | 0.115 | 0.0612 |  |  | 0.0744 | 0.0842 |
| N186M | 0.076 | 0.0733 | 0.0635 | 0.0459 |  |  | 0.0683 | 0.0604 | 0.0617 |  | 0.069 |  | 0.0355 |  | 0.0645 |  | 0.0485 |
| Q227I | 0.0535 | 0.0591 | 0.0673 |  | 0.108 | 0.0724 | 0.0677 |  | 0.0656 |  |  | 0.109 | 0.0817 | 0.0737 | 0.0335 | 0.114 |  |
| P222C | 0.0437 | 0.0601 | 0.0689 | 0.0582 | 0.0939 | 0.0615 | 0.073 | 0.0819 | 0.0664 |  |  |  | 0.0747 |  | 0.0611 | 0.0842 |  |
| K230M | 0.0697 | 0.0629 |  | 0.0675 | 0.0757 | 0.0618 | 0.0549 |  | 0.0468 | 0.0917 |  | 0.113 |  | 0.0661 | 0.0587 | 0.0819 | 0.0704 |
| N206H | 0.0524 | 0.0684 | 0.0666 | 0.067 | 0.0842 | 0.0662 | 0.075 | 0.0542 | 0.0439 | 0.0676 | 0.081 | 0.116 | 0.0668 | 0.0568 | 0.0559 | 0.107 |  |
| G162M | 0.0591 |  | 0.0664 |  | 0.0711 |  | 0.0786 |  | 0.0586 |  |  |  | 0.0874 |  | 0.0634 | 0.108 |  |
| M125V | 0.0554 | 0.0821 |  | 0.0676 | 0.0566 | 0.065 |  |  | 0.0591 | 0.0583 |  | 0.152 |  | 0.0644 | 0.0449 | 0.144 |  |
| F133E | 0.0474 | 0.0819 | 0.0704 |  |  | 0.0681 | 0.0656 |  | 0.0563 |  | 0.106 | 0.121 | 0.132 | 0.0693 | 0.0704 | 0.109 | 0.111 |
| H62V |  | 0.0768 | 0.0772 |  | 0.0789 | 0.0686 |  | 0.0702 | 0.057 | 0.0669 | 0.0515 | 0.141 |  |  | 0.0622 |  | 0.081 |
| V200N | 0.0786 | 0.0601 |  |  |  |  | 0.0631 | 0.057 | 0.0557 | 0.0584 | 0.0661 | 0.0851 |  |  | 0.0657 |  |  |
| F173A | 0.0653 | 0.0564 | 0.0619 | 0.0532 | 0.0727 | 0.0594 | 0.0537 |  | 0.0726 |  | 0.0612 | 0.116 | 0.0757 |  | 0.056 |  | 0.0806 |
| V183T | 0.0628 | 0.0679 | 0.0671 | 0.0689 | 0.0947 | 0.0721 | 0.0961 | 0.0623 |  | 0.0677 |  | 0.133 | 0.0685 | 0.0627 | 0.0826 | 0.119 |  |
| S201K |  | 0.0663 | 0.0952 |  | 0.0737 |  | 0.0711 |  |  |  | 0.0695 |  |  | 0.0581 | 0.0703 |  |  |
| S201W | 0.0597 | 0.0571 | 0.0951 | 0.0488 | 0.0835 | 0.0612 | 0.0601 | 0.0254 |  | 0.0666 | 0.0639 | 0.072 | 0.0692 | 0.0556 | 0.0583 | 0.087 |  |
| R204T | 0.0574 | 0.0649 | 0.0638 | 0.0581 | 0.0906 | 0.0689 | 0.0691 | 0.0469 | 0.0383 | 0.0922 | 0.0902 | 0.0612 | 0.075 | 0.0636 |  | 0.123 |  |
